About 540 (0.36%) of roughly 150,000 compounds showed an effect of 50% or more. The list shows a part of the results.

The assay concerns Plasmodium falciparum. The experiment in a line: Primary screen in NF54 nanoGlo assay, in single point, at 2uM, 72h; a lower Z score goes with more inhibition. The following applies: timepoint 72 hour. It is filed as functional, Erythrocyte.
Broadly, the % Inhibition is the relative decrease from the control value, in per cent. For the compound `CCOc1ccc(-c2cc(C(F)(F)F)nn2-c2nc(-c3ccc(F)cc3)cs2)cc1`, the “% Inhibition” value is on record as 0% and the Z score was determined as 0.04.
The matching figures for `CCCCC[n+]1ccc(N2C(=O)c3ccccc3C2=O)cc1`: -3% and 0.42.
The corresponding values for `CC(NC(=O)OC(C)(C)C)C(Cc1ccccc1)OC(=O)c1cnn2cccnc12` (centres undefined) are -6% and 1.01.
Regarding `O=C(c1cncc(N2CCC[C@H](c3ccn(CCO)n3)C2)n1)N1CCOCC1`, the “% Inhibition” value is listed as -8% and the Z score is 0.97.
The corresponding values for `O=C(c1cc(-c2ccc(F)cc2)n[nH]1)N1CCCCC[C@H]1c1cccc(F)c1` are -10% and 1.44.
The matching figures for `Clc1cccc(CN2CCCn3cccc3[C@H]2c2cccc(Oc3ccccc3)c2)c1`: -18% and 1.71.
The matching figures for `CCc1ccc(CCC(=O)N2CCC[C@@]3(CNC(=O)O3)C2)cc1`: 8% and -1.17.
Consider `N=C(N)NCc1ccccc1C(F)(F)F`, for which the “% Inhibition” value is recorded as -4% and the Z score was 0.45.
For the compound `CCn1nc(C2CCOCC2)nc1-c1ccc(-n2cnnc2)cc1`, the “% Inhibition” value is -6% and the Z score is reported as 0.92.
The corresponding values for `COc1cccc(Cn2nnc3cc(C(=O)N4CCN(c5cc(C)ccc5C)CC4)ccc32)c1` are -8% and 0.83.
The matching figures for `FC1(F)CC(Nc2cncc(-n3cccn3)n2)C1`: 6% and -1.13.
The matching figures for `CC(C)N(CC(N)=O)Cc1cc(Cl)ccc1OCc1cccnc1`: -1% and 0.13.
On to `CCC(Cc1ccc(F)cc1)NC(=O)N1CCC[C@@H]1CS(C)(=O)=O` (some centres undefined), for which the “% Inhibition” value was -10% and the Z score came to 1.86.
The matching figures for `Cc1cccc2c1ccn2CC(=O)N=c1[nH]c2ccccc2[nH]1`: 6% and -0.9.
The corresponding values for `Cc1ccc(OCc2ccc(C(=O)N(C)C[C@H](C)c3nnn[nH]3)o2)c(C)c1` are -8% and 0.98.
The matching figures for `O=C(NC[C@@H]1COc2ccccc2C1)c1cnc2ccccn12`: -7% and 0.89.
As to `Cc1cccc(C2C(C(=O)NCc3cccnc3)c3ccccc3C(=O)N2C2CC2)c1` (centres undefined), the “% Inhibition” value was -10% and the Z score worked out at 0.97.
The matching figures for `O=C(Cc1ccccc1)N(Cc1ccco1)C1CCOCC1`: -10% and 1.51.
The matching figures for `CCCC(NCC1(C)CCC(=O)N1)C1CCCC1` (centres undefined): -10% and 1.05.
The matching figures for `CC(C)[C@H](CCO)NC(=O)c1ccc(NCCc2ccccn2)cc1`: -9% and 1.22.
As to `CC(C)c1ccc(S(=O)(=O)N2CCC(C(=O)N[C@H](c3ccccc3F)c3nccn3C)CC2)cc1`, the “% Inhibition” value is on record as -7% and the Z score turned out to be 0.56.
The corresponding values for `Cc1ccc(NC(=O)N2CC(n3cc(CO)nn3)C2)cc1C` are -1% and 0.22.
`COCC[C@]1(NC(=O)c2ccc(F)cc2)CCN(C(=O)COC)C1`: the “% Inhibition” value is -1% and the Z score was found to be 0.06.
On to `C[C@H]1C(=O)NCCN1C(=O)Nc1ccccc1CC(=O)OC(C)(C)C`, for which the “% Inhibition” value was found to be 0% and the Z score is on record as -0.03.
The corresponding values for `CCc1nsc(N2CCOC[C@@H]2C)n1` are 3% and -0.49.
For the compound `Cc1nc(-c2cc3ccccc3nc2N2CCNCC2)no1`, the “% Inhibition” value is listed as -15% and the Z score is listed as 2.92.
Take `CC(C)(NC(=O)c1ccccc1)c1nc(-c2cccnc2Oc2ccccc2)no1`: the “% Inhibition” value is reported as 29% and the Z score is -3.23.
The matching figures for `CN(C)C(=O)CN1CCC2(CC1)C[C@@H](c1ccccc1)C(=O)N(C)C2`: -4% and 0.82.
The matching figures for `Cc1ccccc1N1CCN(c2ncccc2CNc2ncccc2C(=O)O)CC1`: -12% and 2.05.
The corresponding values for `Cc1noc2nc(C3CC3)cc(C(=O)NC3CCC(O)CC3)c12` (centres undefined) are 5% and -0.71.
With `Cc1cc(C)n(C)c(=O)c1C(=O)N1CCC[C@H](c2nnc3ccccn23)C1`, the “% Inhibition” value turned out to be 7% and the Z score is given as -1.26.
The matching figures for `COc1ccccc1CNC(=O)Cn1ccc2ncccc2c1=O`: -7% and 0.9.
The corresponding values for `COCCO[C@H]1[C@H](NC(=O)C(C)C)c2ccccc2C12CCN(Cc1cc(C)c(OC)cc1C)CC2` are 13% and -1.7.
The corresponding values for `c1cc2c(o1)CCCN(Cc1nc(C3CC3)no1)C2` are -4% and 0.52.
Take `COc1cccc(NC(=O)Cn2nc3ncccn3c2=O)c1`: the “% Inhibition” value is given as -1% and the Z score is listed as 0.07.
The corresponding values for `O=C(CCn1nnc2ccccc2c1=O)N1CCN2CCC1C2` (centres undefined) are 8% and -1.01.
The corresponding values for `O=C(c1ccccn1)N1CC(n2cc(COc3ccncc3)nn2)C1` are 0% and 0.01.
The corresponding values for `O=C(NCCCN1CCCCC1)c1cccc(-c2ccc(NCc3ccccc3)nn2)c1` are -6% and 1.16.
On to `CO[C@@H](C)CS(=O)(=O)Oc1ccc(-n2ccnc2)cc1`, for which the “% Inhibition” value is -4% and the Z score is reported as 0.53.
The corresponding values for `O=C(NCc1cncc(O)c1)[C@H]1C[C@@H]1c1c(F)cccc1Cl` are -10% and 1.92.
The corresponding values for `c1ccc(Oc2ccc(-n3nnnc3N3CCC[C@H](c4ncc[nH]4)C3)cc2)cc1` are -33% and 2.9.
The corresponding values for `Cc1cc(C(=O)Nc2nnc([C@H]3CC(=O)N(c4ccccc4)C3)o2)c(C)o1` are -8% and 1.2.

The values above are taken from ChEMBL document CHEMBL4888484, “Replenishing the malaria drug discovery pipeline: Screening and hit evaluation of the MMV Hit Generation Library 1 (HGL1) against asexual blood stage Plasmodium falciparum ,using a nano luciferase reporter read-out” (2022).
